{"source": "PubChem BioAssay AID2675", "about": "(National Center for Advancing Translational Sciences (NCATS), 2010)", "note": "The campaign covered roughly 280,000 compounds. About 100 (0.036%) were called active. The inconclusive results got no clear call from the source; some entries with a clear call stand among them for comparison. The call rests on the fitted dose curve; in most records, active means well fitted inhibition curve with a large enough effect in the signal ratio, with a control signal flat (not every such curve was filed as active); inconclusive means small, poorly fitted or top-dose-only effect, or effect the other way, or a change in a side signal; inactive means no such curve, though single readings can be large or run the other way; the % refers to the signal ratio. Where the call is inconclusive, the potency comes from a doubtful curve fit. “Side channel” marks fits to a control or component signal instead of the main read-out. Potency means the concentration at half of the fitted maximal effect; tags describe the fitted curve by direction and shape or compound fluorescence and quenching.", "data": [{"target": "Muscleblind-like protein 1 (Homo sapiens) (UniProt Q9NR56)", "sequence (Q9NR56 whole entry, looked up)": "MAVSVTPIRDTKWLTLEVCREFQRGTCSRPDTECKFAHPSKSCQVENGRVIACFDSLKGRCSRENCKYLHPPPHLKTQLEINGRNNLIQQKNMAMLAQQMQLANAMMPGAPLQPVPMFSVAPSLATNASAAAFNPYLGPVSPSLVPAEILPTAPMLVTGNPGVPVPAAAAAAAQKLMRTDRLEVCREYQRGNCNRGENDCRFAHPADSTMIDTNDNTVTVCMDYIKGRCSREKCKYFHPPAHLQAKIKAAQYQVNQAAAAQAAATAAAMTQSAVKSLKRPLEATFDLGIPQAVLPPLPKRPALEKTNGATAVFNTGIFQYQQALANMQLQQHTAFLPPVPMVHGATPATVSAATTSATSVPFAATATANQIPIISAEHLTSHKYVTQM", "experiment": "qHTS Assay for Inhibitors of MBNL1-poly(CUG) RNA binding", "conditions": "TR-FRET MBNL1-His/biotin-(CUG)12 binding, 665/545 ratio; series mostly up to 57.5 µM", "method_in_brief": "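TR-FRET readout: Ex 340 nm, 665/545 nm emission ratio, normalized to buffer-only (basal) and MBNL1-(CUG)12 controls. Complex of MBNL1-His with Biotin-(CUG)12, compounds 92 nM–58 uM, incubated 60 min at room temperature.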", "values": [{"smiles": "CC(=O)C1=C(C)NC(SCC(N)=O)=C(C#N)C1CC(C)C", "note": "(stereo not given)", "Potency": "inactive"}, {"smiles": "COc1cc(C)ccc1Oc1ncnc(N)c1[N+](=O)[O-]", "Potency": "inconclusive: 12.6 µM [quencher, side channel, partial curve]"}, {"smiles": "CCCCn1cnc2c1c(=O)[nH]c(=O)n2CCCC", "Potency": "inactive"}, {"smiles": "COc1ccc(CCNC(=O)c2cc3c(=O)n4cccc(C)c4nc3n(CC3CCCO3)c2=N)cc1", "note": "(stereo not given)", "Potency": "inconclusive: 5.01 µM [quencher, side channel, full curve]"}, {"smiles": "CC(=O)c1ccc(N(C(=O)CNC(=O)c2ccco2)C(C(=O)NC2CCCC2)c2ccc(C)o2)cc1", "note": "(stereo not given)", "Potency": "inactive"}, {"smiles": "C=CCN(C(=O)C1=NN(C2CCS(=O)(=O)C2)C(=O)CC1)c1nc(-c2ccc([N+](=O)[O-])cc2)cs1", "note": "(stereo not given)", "Potency": "inconclusive: 25.1 µM [quencher, side channel, partial curve]"}, {"smiles": "Cc1cccc(Cl)c1OCCCCn1ccnc1", "Potency": "inactive"}, {"smiles": "CCc1cc2c(=O)[nH]c(-c3ccncc3)nc2s1", "Potency": "inconclusive: 11.2 µM [quencher, side channel, partial curve]"}, {"smiles": "O=C(c1cccc(C(F)(F)F)c1)N1CCC(O)(CS(=O)(=O)Cc2ccc(Cl)cc2)CC1", "Potency": "inconclusive: 35.5 µM [quencher, side channel, single point]"}, {"smiles": "Cc1nc2c(C#N)c(-c3ccc(Cl)cc3)ccn2n1", "Potency": "inconclusive: 3.16 µM [quencher, side channel, full curve]"}, {"smiles": "COc1ccc(/C=C/C(=O)c2ccc[nH]2)c(OC)c1OC", "Potency": "inconclusive: 4.47 µM [quencher, side channel, single point]"}, {"smiles": "O=C(CSc1ncnc2c1oc1ccccc12)NC1CCCCC1", "Potency": "inconclusive: 39.8 µM [fluorescent, side channel, single point]"}, {"smiles": "CCOc1cccc2cc(C(=O)NCc3ccc(C)cc3)c(=N)oc12", "Potency": "inactive"}, {"smiles": "COc1ccccc1NC(=S)N1CC(C)OC(C)C1", "note": "(stereo not given)", "Potency": "inactive"}, {"smiles": "Cc1ccc(O)c(C2=Nc3ccccc3N=C(c3ccco3)C2)c1", "Potency": "inconclusive: 11.2 µM [fluorescent, side channel, partial curve]"}, {"smiles": "CCC1=NN2C(=N)/C(=C\\c3cccn3-c3ccc(C)c(C)c3)C(=O)N=C2S1", "Potency": "inconclusive: 28.2 µM [quencher, side channel, single point]"}, {"smiles": "CCCOc1ccc(-c2nc(-c3ccc(N)cc3)cs2)cc1", "Potency": "inconclusive: 0.794 µM [quencher, side channel, single point]"}, {"smiles": "Cc1n[nH]c(C)c1CCC(=O)N/N=C/C=C/c1ccccc1", "Potency": "inconclusive: 22.4 µM [quencher, side channel, single point]"}, {"smiles": "CC1=CC(=C2C(=O)c3ccccc3C2=O)C=C(C)N1Cc1ccco1", "Potency": "inconclusive: 14.1 µM [quencher, partial curve]"}, {"smiles": "COc1ccccc1CNc1ncccc1[N+](=O)[O-]", "Potency": "inconclusive: 20 µM [quencher, side channel, partial curve]"}, {"smiles": "NC1=NC(=O)/C(=C/c2ccccc2OS(=O)(=O)c2ccc3ccccc3c2)S1", "Potency": "inconclusive: 0.0282 µM [fluorescent, side channel, full curve, poor fit]"}, {"smiles": "COCCCNC(=O)/C(C#N)=C/c1cccc(NC(=O)c2ccccc2Cl)c1", "Potency": "inconclusive: 39.8 µM [fluorescent, side channel, partial curve]"}, {"smiles": "O=C(O)c1ccc(NS(=O)(=O)c2cccc(C(=O)Nc3ccccc3[N+](=O)[O-])c2)cc1", "Potency": "inconclusive: 14.1 µM [quencher, side channel, partial curve]"}, {"smiles": "COc1cccc(/C=N/NC(=O)COc2cccc3cccnc23)c1O", "Potency": "inactive"}, {"smiles": "Cc1nnc2sc(-c3cccc(F)c3)nn2c1=O", "Potency": "inconclusive: 12.6 µM [quencher, side channel, partial curve]"}, {"smiles": "Cn1c(SCC(=O)Nc2ccc3c(c2)oc2ccccc23)nnc1-c1ccccc1", "Potency": "inconclusive: 31.6 µM [fluorescent, side channel, single point]"}, {"smiles": "O=C(CNc1cccc2ccccc12)N/N=C/c1ccc([N+](=O)[O-])o1", "Potency": "inconclusive: 12.6 µM [quencher, side channel, partial curve]"}, {"smiles": "Cc1n[nH]c(C)c1N1C(=O)c2cccc3c(N4CCCCCC4)ccc(c23)C1=O", "Potency": "inconclusive: 15.8 µM [quencher, side channel, partial curve]"}, {"smiles": "CC(NC(=O)c1cc2c(=O)n3ccccc3nc2n(CC2CCCO2)c1=N)c1ccccc1", "note": "(stereo not given)", "Potency": "inconclusive: 5.01 µM [quencher, side channel, full curve]"}, {"smiles": "CCCC[n+]1ccn(-c2nc3c([N+](=O)[O-])cccc3n2C)c1", "Potency": "inconclusive: 15.8 µM [quencher, side channel, partial curve]"}, {"smiles": "CCOC(=O)NC(=S)c1ccc[nH]1", "Potency": "inconclusive: 35.5 µM [quencher, side channel, single point]"}, {"smiles": "Cc1cccc(-n2nc([N+](=O)[O-])c(=NCc3cccnc3)n2O)c1", "Potency": "inconclusive: 15.8 µM [quencher, side channel, partial curve]"}, {"smiles": "CC(=O)N1N=C(c2cccc([N+](=O)[O-])c2)OC1c1ccc(Cl)cc1Cl", "note": "(stereo not given)", "Potency": "inconclusive: 11.2 µM [quencher, side channel, partial curve]"}, {"smiles": "O=C(Nc1ccccc1)c1[nH]ncc1[N+](=O)[O-]", "Potency": "inconclusive: 20 µM [quencher, single point]"}, {"smiles": "COc1cc(NC2c3ncccc3C(=O)N2Cc2ccco2)cc(OC)c1", "note": "(stereo not given)", "Potency": "inconclusive: 100 µM [inhibitor, single point]"}, {"smiles": "CS(=O)(=O)N1CCCC(C(=O)NCCN2CCC(Cc3ccccc3)CC2)C1", "note": "(stereo not given)", "Potency": "inconclusive: 8.91 µM [quencher, side channel, single point]"}, {"smiles": "O=C(Nc1ccc(Cl)c(C(F)(F)F)c1)C(=O)N1CCCCC1", "Potency": "inconclusive: 0.891 µM [fluorescent, side channel, partial curve]"}, {"smiles": "CC(C)OC(=O)CC(=O)CSc1nc2c(cc1C#N)CCCC2", "Potency": "inconclusive: 25.1 µM [quencher, side channel, partial curve]"}, {"smiles": "CCCCCCOc1ccc(N2C(=O)CC(N(CCc3ccc(S(N)(=O)=O)cc3)C(C)=O)C2=O)cc1", "note": "(stereo not given)", "Potency": "inconclusive: 5.01 µM [fluorescent, side channel, single point]"}, {"smiles": "Cc1nc2sc(C(c3cccs3)N3CCC4(CC3)OCCO4)c(O)n2n1", "note": "(stereo not given)", "Potency": "inconclusive: 31.6 µM [quencher, side channel, single point]"}, {"smiles": "c1ccc2nc(-c3nc4ccccc4o3)ccc2c1", "Potency": "inconclusive: 14.1 µM [quencher, side channel, partial curve]"}, {"smiles": "N#Cc1cccc2c1-c1ccccc1/C2=N/NC(N)=O", "Potency": "inconclusive: 10 µM [quencher, side channel, partial curve]"}, {"smiles": "CC(C)(C)c1ccc(CN2C3=NCCCN3c3ccccc32)cc1", "Potency": "inactive"}, {"smiles": "Cc1nc(-c2ccccc2)nc2[nH]c(C(C)C)cc(=O)c12", "Potency": "inconclusive: 39.8 µM [quencher, side channel, single point]"}, {"smiles": "CCOc1cc(/C=N/Nc2ncnc(Cl)c2N)ccc1O", "Potency": "inconclusive: 15.8 µM [quencher, side channel, partial curve]"}, {"smiles": "CCCCCCOC(=O)C(C#N)c1nc2ccccc2nc1N1CCCCC1", "note": "(stereo not given)", "Potency": "inactive"}, {"smiles": "CN(CC1CCCN(CCc2ccc(Cl)cc2)C1)C(=O)C(=O)c1ccco1", "note": "(stereo not given)", "Potency": "inactive"}, {"smiles": "CC(C)c1ccc(N=c2c([N+](=O)[O-])nn(-c3ccc4c(c3)OCCO4)n2O)cc1", "Potency": "inconclusive: 25.1 µM [quencher, side channel, single point]"}, {"smiles": "Cc1ccc(-c2[nH]c(=O)n3ccncc23)s1", "Potency": "inconclusive: 14.1 µM [quencher, side channel, partial curve]"}, {"smiles": "O=C(Nc1cccc(C(F)(F)F)c1)c1sc(Cl)nc1C(F)(F)F", "Potency": "inactive"}, {"smiles": "COc1cccc(-n2nc(C(N)=O)c(O)cc2=O)c1", "Potency": "inactive"}, {"smiles": "N#CC1=C(N)C(C#N)(C#N)[C@H](c2ccsc2)[C@H]2COCC=C12", "Potency": "inconclusive: 28.2 µM [quencher, single point]"}, {"smiles": "O=C(CN(Cc1ccccc1)S(=O)(=O)c1ccccc1)N/N=C/c1ccccc1[N+](=O)[O-]", "Potency": "inconclusive: 22.4 µM [quencher, side channel, partial curve]"}, {"smiles": "Cc1nc(COC(=O)c2cc(O)c3ccccc3c2O)cs1", "Potency": "inconclusive: 31.6 µM [quencher, single point]"}, {"smiles": "O=[N+]([O-])c1ccc(/C=N/Nc2ccc3ccccc3c2)o1", "Potency": "inconclusive: 10 µM [quencher, side channel, partial curve]"}, {"smiles": "O=C(CN1CCN(c2ccccc2O)CC1)NCCCc1ccccc1", "Potency": "inactive"}, {"smiles": "COc1ccc(/C=C/C(=O)OCC(=O)Nc2cc(C(N)=O)cc(C(N)=O)c2)cc1", "Potency": "inconclusive: 14.1 µM [quencher, side channel, partial curve]"}, {"smiles": "O=C(CCN1C(=O)c2ccncc2C1=O)Nc1cc(F)ccc1F", "Potency": "inconclusive: 8.91 µM [quencher, side channel, partial curve]"}, {"smiles": "CSc1nc2ccc3nc(NC(=O)C4COc5ccccc5O4)sc3c2s1", "note": "(stereo not given)", "Potency": "inconclusive: 0.891 µM [quencher, side channel, full curve, poor fit]"}, {"smiles": "Cc1ccc2c(c1)Cc1nc3ccccc3nc1-2", "Potency": "inconclusive: 11.2 µM [quencher, side channel, partial curve]"}]}]}
